The other results are listed elsewhere or left out.
What was measured:
Assay in all cases: glycan array binding signal (z-score within array); higher = stronger binding
Settings in all cases: glycan notation: IUPAC condensed, linker removed
[1] = molecular target: Neu5Ac(a2-8)Neu5Ac(a2-3)Gal(b1-3)GalNAc(b1-4)[Neu5Ac(a2-3)]Gal(b1-4)Glc
Method in brief: (§1)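 The binding signal is a Z-score computed within each array. Data were drawn from 3228 arrays in the Consortium for Functional Glycomics database, restricted to those with a known protein sequence. Scores were averaged over arrays of the same protein sequence at different concentrations or buffers, and over linkers, and negative values can be taken as non-binding.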

[2] = molecular target: Neu5Ac(a2-8)Neu5Ac(a2-3)Gal(b1-3)GalNAc(b1-4)[Neu5Ac(a2-8)Neu5Ac(a2-3)]Gal(b1-4)Glc
Method in brief: as §1

[3] = molecular target: Neu5Ac(a2-8)Neu5Ac(a2-3)Gal(b1-4)Glc
Method in brief: as §1

[4] = molecular target: Neu5Ac(a2-8)Neu5Ac(a2-3)[Gal(b1-3)GalNAc(b1-4)]Gal(b1-4)Glc
Method in brief: as §1

[5] = molecular target: Neu5Ac(a2-8)Neu5Ac(a2-3)[GalNAc(b1-4)]Gal(b1-4)Glc
Method in brief: as §1

[6] = molecular target: Neu5Ac(a2-8)Neu5Ac(a2-6)Gal
Method in brief: as §1

[7] = molecular target: Neu5Ac(a2-8)Neu5Ac(a2-6)Glc
Method in brief: as §1

[8] = molecular target: Neu5Ac(a2-8)Neu5Ac(a2-8)Neu5Ac
Method in brief: as §1

[9] = molecular target: Neu5Ac(a2-8)Neu5Ac(a2-8)Neu5Ac(a2-3)Gal(b1-4)Glc
Method in brief: as §1

[10] = molecular target: Neu5Ac(a2-8)Neu5Ac(a2-8)Neu5Ac(a2-6)Gal
Method in brief: as §1

[11] = molecular target: Neu5Ac(a2-8)Neu5Ac(a2-8)Neu5Ac(a2-8)Neu5Ac
Method in brief: as §1

[12] = molecular target: Neu5Ac(a2-8)Neu5Ac(a2-8)Neu5Ac(a2-8)Neu5Ac(a2-8)Neu5Ac
Method in brief: as §1

[13] = molecular target: Neu5Ac(a2-8)Neu5Ac(a2-8)Neu5Ac(a2-8)Neu5Ac(a2-8)Neu5Ac(a2-8)Neu5Ac
Method in brief: as §1

[14] = molecular target: Neu5Ac(a2-8)Neu5Ac(a2-8)Neu5Ac(a2-8)Neu5Ac(a2-8)Neu5Ac(a2-8)Neu5Ac(a2-8)Neu5Ac
Method in brief: as §1

[15] = molecular target: Neu5Ac(a2-8)Neu5Ac(a2-8)Neu5Ac(a2-8)Neu5Ac(a2-8)Neu5Ac(a2-8)Neu5Ac(a2-8)Neu5Ac(a2-8)Neu5Ac
Method in brief: as §1

[16] = molecular target: Neu5Ac(a2-8)Neu5Ac(a2-8)Neu5Ac(a2-8)Neu5Ac(a2-8)Neu5Ac(a2-8)Neu5Ac(a2-8)Neu5Ac(a2-8)Neu5Ac(a2-8)Neu5Ac
Method in brief: as §1

[17] = molecular target: Neu5Ac(a2-8)Neu5Ac(a2-8)Neu5Ac(a2-8)Neu5Ac(a2-8)Neu5Ac(a2-8)Neu5Ac(a2-8)Neu5Ac(a2-8)Neu5Ac(a2-8)Neu5Ac(a2-8)Neu5Ac
Method in brief: as §1

[18] = molecular target: Neu5Ac(a2-9)Neu5Ac(a2-3)Gal(b1-4)Glc
Method in brief: as §1

Neu5Ac(b2-3)Gal(b1-4)Glc = molecular target: Neu5Ac(b2-3)Gal(b1-4)Glc
Method in brief: as §1

Neu5Ac(b2-6)Gal(b1-4)Glc = molecular target: Neu5Ac(b2-6)Gal(b1-4)Glc
Method in brief: as §1

[19] = molecular target: Neu5Ac9Ac(a2-3)Gal(b1-3)[Fuc(a1-4)]GlcNAc
Method in brief: as §1

[20] = molecular target: Neu5Ac9Ac(a2-3)Gal(b1-4)[Fuc(a1-3)]GlcNAc
Method in brief: as §1

[21] = molecular target: Neu5Ac9Ac(a2-3)Gal(b1-4)[Fuc(a1-3)]GlcNAc(b1-3)Gal
Method in brief: as §1

[22] = molecular target: Neu5Ac9Ac(a2-6)Gal(b1-4)GlcNAc
Method in brief: as §1

[23] = molecular target: Neu5Ac9Me(a2-3)Gal(b1-4)Glc
Method in brief: as §1

[24] = molecular target: Neu5Gc(a2-3)Gal(b1-3)GlcNAc(b1-3)Gal(b1-4)Glc
Method in brief: as §1

Neu5Gc(a2-3)Gal(b1-4)Glc = molecular target: Neu5Gc(a2-3)Gal(b1-4)Glc
Method in brief: as §1

[25] = molecular target: Neu5Gc(a2-3)Gal(b1-4)[Fuc(a1-3)]GlcNAc(b1-3)Gal
Method in brief: as §1

[26] = molecular target: Neu5Gc(a2-6)Gal(b1-3)GlcNAc(b1-3)Gal(b1-4)Glc
Method in brief: as §1

[27] = molecular target: Neu5Gc(a2-6)Gal(b1-4)GlcNAc(b1-2)Man(a1-3)[Neu5Gc(a2-6)Gal(b1-4)GlcNAc(b1-2)Man(a1-6)]Man(b1-4)GlcNAc(b1-4)GlcNAc
Method in brief: as §1

Neu5Gc(a2-6)GalNAc = molecular target: Neu5Gc(a2-6)GalNAc
Method in brief: as §1

Rha(a1-6)Glc = molecular target: Rha(a1-6)Glc
Method in brief: as §1

[28] = molecular target: Xyl(a1-6)Glc(b1-4)[Xyl(a1-6)]Glc(b1-4)[Xyl(a1-6)]Glc(b1-4)Glc
Method in brief: as §1

[29] = molecular target: Xyl(b1-2)[Man(a1-3)][Man(a1-6)]Man(b1-4)GlcNAc(b1-4)GlcNAc
Method in brief: as §1

[30] = molecular target: Xyl(b1-2)[Man(a1-3)][Man(a1-6)]Man(b1-4)GlcNAc(b1-4)[Fuc(a1-3)]GlcNAc
Method in brief: as §1

[31] = molecular target: Xyl(b1-4)Xyl(b1-4)Xyl(b1-4)Xyl(b1-4)Xyl
Method in brief: as §1

[32] = molecular target: Xyl(b1-4)Xyl(b1-4)Xyl(b1-4)Xyl(b1-4)Xyl(b1-4)Xyl
Method in brief: as §1

Measured: glycan array binding signal (z-score)

B1: ZG16p (Homo sapiens), O60844 (protein)
chain: ARSSSYSGEYGGGGGKRFSHSGNQLDGPITALRVRVNTYYIVGLQVRYGKVWSDYVGGRNGDLEEIFLHPGESVIQVSGKYKWYLKKLLFVTDKGRYLSFGKDSGTSFNAVPLHPNTVLRFISGRSGSLIDAIGLHWDVYPSSCSRC
-0.186: Neu5Ac(b2-6)Gal(b1-4)Glc
-0.216: [29]
-0.369: [30]
-0.328: [1] | [2] | [4] | [5] | [6] | [7] | [9] | [11] | [12] | [13] | [14] | [15] | [16] | [17] | [18] | [19] | [20] | [21] | [22] | [23] | [24] | [25] | [26] | Neu5Gc(a2-6)GalNAc | [28] | [31] | [32]
-0.078: Rha(a1-6)Glc
-0.281: [3]
-0.282: [27]
-0.306: [8] | Neu5Ac(b2-3)Gal(b1-4)Glc
-0.283: [10]
-0.144: Neu5Gc(a2-3)Gal(b1-4)Glc
